# Laboratory results as given in PubChem BioAssay AID902 (National Center for Advancing Translational Sciences (NCATS), 2007).
# In all, about 130,000 compounds went through this assay and about 1,900 (1.5%) were called active. Inconclusive means that the source gave no clear call. Such entries were picked first, then a sample of the others. The call rests on the fitted dose curve; in most records, active means well fitted cell-killing curve with a large enough effect; inconclusive means small, poorly fitted or top-dose-only effect; inactive means no such curve, though single readings can be large or run the other way. Where the call is inconclusive, the potency comes from a doubtful curve fit.
# Assay: qHTS Screen for Compounds that Selectively Target Cancer Cells with p53 Mutations: Cytotoxicity of p53ts Cells at the Nonpermissive Temperature; further: nearly all actives have a fitted effect of over 55% in size
# Details: H1299-p53A138V viability at 39C, ATP luminescence, 24 h; series mostly up to 46.1 µM
# Potency means the concentration at half of the fitted maximal effect; tags describe the fitted curve by direction and shape.
row,Compound,Potency
1,COc1ccc(Cl)cc1-c1nc(-c2ccc(NC(=O)c3ccncc3)cc2)no1,inactive
2,CCOc1ccccc1C(=O)NCC(c1ccc(N(C)C)cc1)N1CCc2ccccc21 (stereo unspecified),inactive
3,CN1c2cc3c(cc2N=C(c2ccc(C(=O)O)cc2)c2ccccc21)C(C)(C)CCC3(C)C,"inconclusive: 31.6 µM [cytotoxic, single point]"
4,COc1cccc(-n2c(SCC(=O)Nc3ccc(F)cc3F)nc3c([nH]c4ccccc43)c2=O)c1,"inconclusive: 0.02 µM [cytotoxic, full curve, poor fit]"
5,CN(C)c1ccc(-c2nc(Nc3ccncc3)c3ccccc3n2)cc1,active: 7.94 µM
6,Cc1ccc(Cl)cc1NC(=O)c1cc(-c2ccc3c(c2)OCCO3)on1,"inconclusive: 12.6 µM [cytotoxic, partial curve]"
7,CCCCN(CC)S(=O)(=O)c1ccc(C(=O)Nc2nnc(-c3cccs3)o2)cc1,active: 12.6 µM
8,Cc1cc(C)c(NC(=O)CN2C(=O)CCn3nc(-c4cccn4C)cc32)c(C)c1,inactive
9,CCc1ccc2c(c1)c(=O)c(C(=O)c1ccccc1)cn2CC(=O)Nc1ccc(C)c(Cl)c1,active: 15.8 µM
10,CC1=C/C(=N\OS(=O)(=O)c2ccccc2)C=CC1=O,"inconclusive: 14.1 µM [cytotoxic, single point]"
11,COC(=O)c1sc(NC(=O)c2csc3c2CCCC3)nc1C,inactive
12,COc1ccc2nc3c(cc2c1)Cc1ccccc1-3,active: 0.794 µM
13,CCOCCCNC(=O)c1ccc2c(c1)ncn2C1CCCC1,inactive
14,CCOc1ccc2nc(NC(=O)Nc3cccs3)sc2c1,active: 10 µM
15,Cc1nc2c(C(=O)NCCc3ccccc3)c[nH]n2c(=O)c1Cc1ccccc1F,"inconclusive: 31.6 µM [cytotoxic, single point]"
16,CCOc1cccc(NC(=O)C2CC(=O)N(C)C(=Nc3cccc(OC)c3)S2)c1 (stereo unspecified),active: 12.6 µM
17,COc1cccc(-c2nc(NCCc3c[nH]c4ccc(OC)cc34)c3ccccc3n2)c1,"inconclusive: 31.6 µM [cytotoxic, single point]"
18,O=C(CN1CCCc2ccccc21)N/N=C/c1ccc(O)cc1O,"inconclusive: 20 µM [cytotoxic, single point]"
19,NC(=O)c1oc2ccccc2c1NC(=O)c1ccco1,"inconclusive: 25.1 µM [cytotoxic, single point]"
20,Cn1nc(-c2ccc(OCC(=O)Nc3cccc(C(F)(F)F)c3)cc2)c2ccccc2c1=O,"inconclusive: 10 µM [cytotoxic, partial curve]"
21,Cc1[nH]ccc2c1[nH]c1cc(=O)ccc12,"inconclusive: 25.1 µM [cytotoxic, partial curve]"
22,COc1ccc(-c2noc(CCCOc3ccccc3)n2)cc1OC,inactive
23,COc1cc2c(C#N)c(N3CCN(c4ccccc4OC)CC3)nc(N)c2c(N)n1,"inconclusive: 20 µM [cytotoxic, single point]"

row,Compound,Potency
1,CCOc1ccc(NC(=O)Cn2c(=O)oc3cc(S(=O)(=O)NC4CCCC4)ccc32)cc1,"inconclusive: 0.501 µM [cytotoxic, partial curve, poor fit]"
2,COc1ccc(S(=O)(=O)NCCc2csc3nc(-c4ccc(Cl)cc4)nn23)cc1C,"inconclusive: 2.51 µM [cytotoxic, full curve, poor fit]"
3,COc1ccc2[nH]c(=O)c(CN(C(=O)c3cccc(Cl)c3)c3ccccc3OC)cc2c1,inactive
4,COc1ccc(-c2nc(Cn3c(SCc4cccc(Cl)c4)nc4ccncc43)c(C)o2)cc1,"inconclusive: 12.6 µM [cytotoxic, single point]"
5,Cc1ccc(-n2ncc3c(N(C)Cc4ccccc4)ncnc32)cc1,active: 15.8 µM
6,CCCOc1ccc(-c2nnc(-c3ccco3)o2)cc1,"inconclusive: 10 µM [cytotoxic, partial curve]"
7,Cc1cccc2[nH]c(-c3ccc(NC(=O)c4ccco4)cc3)nc12,inactive
8,Cc1cc2nc(N)sc2cc1C,"inconclusive: 15.8 µM [cytotoxic, partial curve]"
9,CCOc1ccc(Oc2c(/C=N/NC(C)=O)c(C)nn2-c2ccccc2)cc1,"inconclusive: 35.5 µM [cytotoxic, single point]"
10,CN(c1ccccc1)S(=O)(=O)c1ccc(C(=O)Nc2nnc(-c3ccc(F)cc3)o2)cc1,"inconclusive: 5.01 µM [cytotoxic, full curve]"
11,COc1cccc(-c2nnc(NC(=O)c3ccc(S(=O)(=O)N(CC(C)C)CC(C)C)cc3)o2)c1,"inconclusive: 0.501 µM [cytotoxic, single point]"
12,Cc1nnc(NC(=O)c2ccc3ccccc3c2)o1,"inconclusive: 12.6 µM [cytotoxic, partial curve]"
13,Cc1ccn2c(Nc3ccc(F)cc3)c(-c3ccccn3)nc2c1,"inconclusive: 3.98 µM [cytotoxic, full curve]"
14,Fc1ccc(CSc2nc3ncccc3[nH]2)cc1,"inconclusive: 12.6 µM [cytotoxic, single point]"
15,CC(=O)Nc1cccc(-c2nc3ccc(NC(C)=O)cc3[nH]2)c1,"inconclusive: 12.6 µM [cytotoxic, single point]"
16,Nc1nsnc1C(=O)NCCO,inactive
17,CCN(CC)CCNC(=O)C1CCN(c2cc(C)nc3c(-c4ccc(Cl)cc4)c(C)nn23)CC1,"inconclusive: 5.01 µM [cytotoxic, full curve, poor fit]"
18,Cc1ccc(NS(=O)(=O)c2cnc(N)nc2)c(C)c1,inactive
19,CCCN(CCC)CCNC(=O)c1cc2c(-c3ccc(Cl)cc3)nn(C)c2s1,active: 12.6 µM
20,CCCCCCCCCC(=O)N[C@@H](CN1CCOCC1)[C@@H](O)c1ccccc1,"inconclusive: 31.6 µM [cytotoxic, single point]"
21,COc1ccc2nc(NC(=O)c3nc(S(=O)(=O)Cc4ccccc4)ncc3Cl)sc2c1,active: 5.01 µM
22,CCN(c1ccc(C)cc1)S(=O)(=O)c1nnc(NC(=O)C2CCCCC2)s1,"inconclusive: 12.6 µM [cytotoxic, single point]"
23,CCCCNC(=O)c1ccc2nc(-c3ccco3)c(-c3ccco3)nc2c1,inactive
